# According to the supplement of paper PMC11417369:
# ± gives the standard deviation of the averaged measurements. The list shows a part of the results.
# System: PfAP2-LT AP2 domain (GST-tagged)
# Experiment: gcPBM binding intensity (ln(normalized median fluorescence intensity)); higher = stronger DNA binding
# Summary of the method: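 GST-tagged P. falciparum DNA-binding domains produced in E. coli were incubated for 1 h on an Agilent 4 × 180k array of primer-extended double-stranded 36-bp intergenic genomic probes with negative controls. Binding intensity is the highest Masliner-normalised natural-log median intensity across replicate spots of either probe orientation, with bound protein detected by Alexa488 anti-GST antibody at 488 nm.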
row,Sequence,gcPBM binding intensity (ln)
1,ATTAGTTTACACATATGTACATATATTACAACAAAA [XGTACX_site275],8.65 ± 0.32
2,TTTATAATAAAATTTTTACACACTTTAAAAAAAAAA [CACACA_site8070],8.18 ± 0.46
3,AATATTCGTAATTGATGTACTTGTAATTCATACATT [XGTACX_site8314],8.95 ± 0.5
4,TTTTTTTCAATATTTGCACACGATTATAATATTTAA [CACACA_site2237],8.89 ± 0.45
5,CAGAATAATTTTATCGGTACACACTGTATGCATAAT [XGTACX_site736],9.02 ± 0.34
6,TATAATAAAAATAATACACACATATATAGCAATCGT [CACACA_site3241],9.24 ± 0.33
7,AATAAATATCTGTACACACACAAATAAATACATATC [CACACA_site5108],9.63 ± 0.33
8,TTTATGTATTTTTATGCACACATGCGTGGCTTATAT [CACACA_site4374],9.26 ± 0.31
9,TACGGACATACTAACGGACACACGTAAGAAAAAAAA [CACACA_site602],9.03 ± 0.56
10,TTTTATTAAAACCACGCATGCAGAGGAAACGGTGAG [TGCATGCA_site1029],8.98 ± 0.37
11,ATATATAATTTTTGCTGTACACAAAATATTAATTTA [XGTACX_site2057],8.54 ± 0.35
12,AATAAAAATAATGAATGTACATATATATATACAATA [XGTACX_site3342],8.91 ± 0.47
13,ATATATAACGTGCACACACACATTTACGTATGAATA [CACACA_site6948],9.51 ± 0.2
14,TATGACATATCCTGTAGTACAACGTATATATAAGAT [XGTACX_site1327],9.03 ± 0.32
15,CATAAAATATAAAACACACACACATATATATATATA [CACACA_site223],10.1 ± 0.28
16,TTCCATGTAGGACATGCATGCAGTTTTTAAAATATT [TGCATGCA_site481],8.82 ± 0.36
17,AAATTTTTTATTCTAATTAATATTTACACAATATAT [TGCATGCA_negctrl_site376],8.57 ± 0.39
18,TATTATATAAATATACGTACATATACTAACCTTTTA [XGTACX_site6317],8.71 ± 0.53
19,TCAAAAAATATATTTGCACACTCAAAAAAAAAAAAA [CACACA_site860],8.71 ± 0.39
20,TACACACATTACAGATGTACATAAAATTAAAAAAAT [XGTACX_site1804],9.13 ± 0.56
21,TATATATATATAAATACATGCATATAATTAATCCAT [TGCATGCA_site400],8.9 ± 0.28
22,CGACAAAAATTTTACAGTACAGTATAAACCTTTTTA [XGTACX_site290],8.51 ± 0.42

row,Sequence,gcPBM binding intensity (ln)
1,TTTTTCACATTTCAGTGTACATTTTAATCATATATA [XGTACX_site915],8.74 ± 0.44
2,AAAAAAAAAAAAAAAAAAATATATTATATATATATA [XGTACX_negctrl_site467],8.55 ± 0.52
3,ATTCCAAAAAAATCAAGTACTAATTTATTATATTAC [XGTACX_site3920],8.48 ± 0.4
4,ATTTTTTTTTTTTTTTTAAGACAAACTCTTAATTTA [CACACA_negctrl_site1389],8.32 ± 0.52
5,TATTTTTTTAAGTGCAGTACACTTAATTTCCCCCAA [XGTACX_site7328],8.59 ± 0.14
6,TAAAAATAAAGAAAATGTACATAAATAAAAATAAAG [XGTACX_site2279],8.88 ± 0.5
7,TATATATATACATAATGTACAAGAATTTGTATTGAA [XGTACX_site627],8.74 ± 0.45
8,ACAGGAGTATAACCTCGTACAAAATATATTTACCAT [XGTACX_site5805],8.99 ± 0.49
9,CCTAGAAAAGCATATACACACGCGCAAAATAAAATT [CACACA_site4902],9.32 ± 0.4
10,TCTTTAAAAAAAAAAAAAAAAAATTCCAAATAAATA [TGCATGCA_negctrl_site538],7.83 ± 0.44
11,AAAAAGCAGGATTATACACACAAATATATATATGTT [CACACA_site1077],9.07 ± 0.38
12,TATATAAATTTAATAACACACATATAAAAATGAATT [CACACA_site2366],8.76 ± 0.4
13,ATTTTTTTTTTTTTTATTCCCCTTTCGAAAAAAACC [CACACA_negctrl_site1139],8.54 ± 0.44
14,TTTTATAATAAGTATGTAAAAATTATATATATATAT [CACACA_negctrl_site711],8.79 ± 0.2
15,AACTTGTATATATACACACACACACTATCTTTTTTT [CACACA_site8601],9.71 ± 0.3
16,ATATGTTTACGTAAATGTACACGTCAGTATATTTCT [XGTACX_site8199],9.08 ± 0.4
17,ATATATATATAACATTGTACACACAAAGAAATAATA [XGTACX_site6440],9.21 ± 0.41
18,GCAACAAAAAATCAGACATGCATTTTAAAATGAATA [TGCATGCA_site846],8.81 ± 0.52
19,ACACATTATAAAACTGTCGCTCATAAAGAAGAATGA [CACACA_negctrl_site999],9.03 ± 0.42
20,CATATTGAATATTTAACACACATTTCGCTTAATTCA [CACACA_site2086],8.87 ± 0.4
21,TTATATATAAAATACTGTACATTTAATTGATGGTTT [XGTACX_site2073],8.67 ± 0.41
22,TATAAAAAAAAAATTTGTACATAATAATATATATAT [XGTACX_site2074],8.63 ± 0.34

row,Sequence,gcPBM binding intensity (ln)
1,GAATGAATTGTTATTAGTACACATGTGAATTATAAA [XGTACX_site6790],8.76 ± 0.45
2,CTTTTATATGTCTAATGTACGGGCAATATAAATTTG [XGTACX_site8323],8.54 ± 0.47
3,AAAAAAAACGGACACACACACATAAATATATATAAA [CACACA_site4260],9.86 ± 0.34
4,AAAAGGTATAGAAACACACACACGTGAATATAGTTT [CACACA_site1905],9.56 ± 0.32
5,ATATTTTATTTTAATACACACAAGTTATATAATCAC [CACACA_site780],8.9 ± 0.4
6,CACACCCACCAACACACACACAAAAAAAAAAAGAAA [CACACA_site500],9.56 ± 0.47
7,AAAAAAAAAAAAAGTGCACACATAAAAATATGATCT [CACACA_site8090],9.23 ± 0.4
8,TACAAATTTATATAAAGTACAAAAAATAATAAAAAT [XGTACX_site7355],8.84 ± 0.34
9,ACATATGTTTTATGTAGTACTTATTTATTATTATAT [XGTACX_site7528],8.9 ± 0.38
10,TTGTTCGATATATGCACACAGTTTTGTTATTTTTCC [CACACA_site4972],9.27 ± 0.45
11,ATGAATAAATAGGTCACACACAAATATATATAAATA [CACACA_site2416],9.38 ± 0.43
12,CACTACACTGTTAATAGTACATATATTTAAAAAAAA [XGTACX_site7371],8.62 ± 0.52
13,AGTTAATGAATAGGCACACATATATCTGTATAAATA [CACACA_site4448],9.04 ± 0.44
14,AGAAAAAAAAAAAGTACACACATATAATATATATAT [CACACA_site2973],9.09 ± 0.47
15,TCAAATAATAAGTATGCATGCTATATTTATATATAC [TGCATGCA_site920],8.86 ± 0.31
16,TACATTTTACTTGTTACACACATATAAAATTAACCA [CACACA_site2922],8.85 ± 0.35
17,AAACGTACATAATACACACACATGTATACCTATAAA [CACACA_site7051],9.54 ± 0.3
18,ATAAAAAATAAAATAAATAAAAAATATTTACCCTTA [TGCATGCA_negctrl_site396],8.42 ± 0.45
19,GGATTTATTATATATACACACATACAGATATATATA [CACACA_site5222],8.91 ± 0.33
20,TAAAAAAATAAATATACACACATATATATATATATA [CACACA_site1089],9.61 ± 0.47
21,TGTAGAAATGGGTGCACACACATATAAAATCTATAT [CACACA_site7224],9.33 ± 0.4
22,TCATTAAAAACTAAAAGTACTCAATATTATGAACAT [XGTACX_site7807],8.46 ± 0.42

row,Sequence,gcPBM binding intensity (ln)
1,CATATATATTTGTTCACACACACACTAGAAAAAAAA [CACACA_site5380],9.49 ± 0.37
2,AAACAAAATTTATTTCAAAGTTAATAATTTTTATGT [CACACA_negctrl_site232],8.23 ± 0.48
3,ACATCATATTAAGAAAGTACAAAAAGAGAACATATA [XGTACX_site1268],8.98 ± 0.47
4,ATATTGTAGATATTGTGTACATATTTTACAACTTTT [XGTACX_site7621],8.94 ± 0.35
5,TATGTACACCCATATACACACCTCTATAATATATAT [CACACA_site4563],9.14 ± 0.3
6,ATATTAATTTCTTATGCATGTTCTACCAAATTGTAT [TGCATGCA_site38],9.04 ± 0.3
7,AAAAAAAATAAAAATAGTACTCAAAAAATTATGAAT [XGTACX_site3073],8.53 ± 0.54
8,GATATGATATGATATGCATGTAACAAATTTTTTTAA [TGCATGCA_site268],8.62 ± 0.49
9,AAAAAAAAATATATATATATATATATATTTATGTAT [GTGCAC_negctrl_site483],9.02 ± 0.21
10,TTCTTCAATAATAAGTGTACATATGCATACATTATA [XGTACX_site1502],8.88 ± 0.42
11,AATTAAAAAATTTATGCACACTTTAAAAAAAAAAAA [CACACA_site5962],8.41 ± 0.48
12,ATAATAAAATAAGAAGCACACAAATATTATATATAA [CACACA_site9319],8.96 ± 0.42
13,ATCAAATTTGGACATGCATGTGTGTGTAAAACCATG [TGCATGCA_site309],9.76 ± 0.31
14,ATATTAGTCGAATGATGTACACACATACAAAACATT [XGTACX_site8613],9.28 ± 0.45
15,AATTATTCTCTTTTCATTTGAACAATATGCTTAAAA [CACACA_negctrl_site995],8.46 ± 0.45
16,AATATTTTTTAAATGTGTACATAGGTATAGCACACA [XGTACX_site8690],8.97 ± 0.43
17,ACAAATATGAGAAATTGTACATATAATAAAATAGTA [XGTACX_site2573],8.88 ± 0.52
18,ACACATTCGAAAAATTGTACATATATAACAGAATAT [XGTACX_site7106],9.04 ± 0.42
19,AGTCATATAAATAGTAGTACTGTGTGTGAAGAAAAA [XGTACX_site5056],9.17 ± 0.42
20,GACTGCACTTTAAGCACACAAATATATTTTTTTTAT [CACACA_site1249],8.82 ± 0.36
21,TTCTATTATGTGACTCAATTCTTCATGGGTGTATAA [TGCATGCA_negctrl_site140],8.85 ± 0.5
22,AATGTATTTATTTTTTGTACATATCGTGTGTGTATT [XGTACX_site1009],9.68 ± 0.48
